According to patent US20230255946A1 (Pure Tech LYT 100, Inc., priority 2020, published 2023):

Experiment: Single dose, double-blinded, cross-over clinical trial of 801 mg LYT-100 vs pirfenidone, safety and pharmacokinetics
Details: 801 mg each

Q: For `O=c1ccc(CO)cn1-c1ccccc1` [LYT-111, 5-hydroxymethyl-pirfenidone], which “overall systemic exposure (AUC) of metabolite greater after administration of LYT-100” value is on record?
A: approximately 50%
